According to paper PMC4336329 (PLoS ONE, 2015):
Hit rate of the full screen: of about 310,000 compounds, about 14,000 (4.5%) showed an effect of 50% or more. Effects have a minus sign here. This is one part of the list.

The molecules below were run against human ether-à-go-go-related gene (hERG) potassium channel (human, UniProt Q12809) (assay: primary screen, population patch clamp on CHO cells stably expressing hERG).
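Also: peak tail current of the secondary pulse compared with the same well before compound.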

human ether-à-go-go-related gene (hERG) potassium channel, sequence (Q12809 whole entry, looked up): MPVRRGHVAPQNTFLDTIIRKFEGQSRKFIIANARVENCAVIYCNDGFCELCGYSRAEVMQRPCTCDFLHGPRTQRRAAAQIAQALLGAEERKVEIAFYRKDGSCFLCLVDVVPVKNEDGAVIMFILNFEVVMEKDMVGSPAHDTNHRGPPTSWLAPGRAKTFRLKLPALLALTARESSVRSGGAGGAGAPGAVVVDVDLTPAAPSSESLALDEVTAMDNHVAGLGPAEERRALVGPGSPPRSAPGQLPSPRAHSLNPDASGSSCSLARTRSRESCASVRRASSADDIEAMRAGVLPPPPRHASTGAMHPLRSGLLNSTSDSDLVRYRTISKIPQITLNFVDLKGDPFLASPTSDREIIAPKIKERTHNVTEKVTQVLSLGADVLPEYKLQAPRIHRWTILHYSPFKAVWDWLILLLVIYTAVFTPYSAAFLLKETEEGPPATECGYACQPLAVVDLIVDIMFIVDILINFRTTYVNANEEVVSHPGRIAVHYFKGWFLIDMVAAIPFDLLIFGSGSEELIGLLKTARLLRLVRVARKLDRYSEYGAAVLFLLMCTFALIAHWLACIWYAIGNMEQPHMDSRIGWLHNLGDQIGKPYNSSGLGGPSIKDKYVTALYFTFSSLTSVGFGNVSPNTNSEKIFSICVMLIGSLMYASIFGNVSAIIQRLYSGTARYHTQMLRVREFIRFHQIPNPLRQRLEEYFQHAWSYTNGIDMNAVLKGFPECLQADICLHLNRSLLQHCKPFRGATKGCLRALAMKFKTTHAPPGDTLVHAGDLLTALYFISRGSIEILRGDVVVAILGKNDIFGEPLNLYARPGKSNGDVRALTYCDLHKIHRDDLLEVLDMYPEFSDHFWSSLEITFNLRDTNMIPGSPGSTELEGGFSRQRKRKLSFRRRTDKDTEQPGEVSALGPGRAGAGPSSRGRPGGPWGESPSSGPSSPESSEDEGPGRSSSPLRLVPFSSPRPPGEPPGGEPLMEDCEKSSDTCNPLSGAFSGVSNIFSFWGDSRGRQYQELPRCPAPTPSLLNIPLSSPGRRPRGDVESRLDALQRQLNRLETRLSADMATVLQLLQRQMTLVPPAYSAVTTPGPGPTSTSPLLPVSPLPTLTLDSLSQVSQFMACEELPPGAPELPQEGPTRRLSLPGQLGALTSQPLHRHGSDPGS

SMILES	hERG current change (%, negative = inhibition) at 10uM [%]
Cc1ccc(C(=O)Nc2nnc(S(=O)(=O)N3CCOCC3)s2)cc1	12.2
Cc1cc(=O)[nH]c(SCC(=O)Nc2nnc(SCc3ccccc3)s2)n1	11.4
O=C(O)/C=C\C(=O)Nc1ccccc1C(=O)N1CCN(c2ccc(Cl)cc2)CC1	-0.544
CC(C)=CC(=O)N1CCCc2ccccc21	-2.07
O=C(O)CCCC(=O)OCCCCc1cccs1	-2.23
N=C1/C(=C/c2cccn2CCOc2ccccc2)C(=O)N=C2SC=C(c3ccccc3)N12	0.858
CN(CC(=O)NCc1ccccc1)Cc1cccc(F)c1.O=C(O)C(=O)O	9.59
COc1ccc2c(c1)C(=O)N1[C@H]3c4cc(Br)ccc4OC[C@@H]3[C@H](c3ccccc3)[C@]1(C)C(=O)N2	18.1
COc1ccc(C)cc1NC(=O)c1ccc(S(=O)(=O)N2CCOCC2)cc1	2.48
Cc1cccc(N2C(=NC(=O)c3ccccc3)SC3CS(=O)(=O)CC32)c1 (centres unmarked)	7
CN1CCN(c2ccc(NC(=O)c3ccccc3Br)cc2)CC1	-4.4
O=C(CCN1C(=O)C2CCCCC2C1=O)Nc1ccc(F)c(F)c1F (centres unmarked)	-8.85
COc1ccc(-c2ncccc2OC(=O)C23CC4CC(CC(C4)C2)C3)cc1OC.Cl	-7.51
Cc1ccc(NC(=O)c2ccc(S(=O)(=O)N3CCOCC3)cc2)nc1	-9.23
COc1ccc(Cc2nnc(NC(=O)c3cccc(C)c3)s2)cc1	34.5
Cc1ccc(-c2noc(CN(C(=O)c3ccc4c(c3)OCO4)C(C)C)n2)cc1	11.2
O=C(NC(NC(=S)Nc1ccccc1C(=O)O)C(Cl)(Cl)Cl)c1cccc([N+](=O)[O-])c1 (centres unmarked)	14.3
COc1ccc([C@@H](C)NC(=O)c2ccc3oc(C(C)C)nc3c2)cc1	26.1
CCN(N=O)[C@@H](Cc1ccccc1)CN(N=O)[C@@H](Cc1ccccc1)CN(C)N=O.[Na+]	-5.3
COc1ccc(OC)c(/C=N\NC(=O)CC(=O)NCCc2ccccc2)c1	11.9
Cc1nc(N2CCOCC2)c2c(C)c(C(=O)Nc3ccccc3Cl)sc2n1	11.1
COCC(C)NC(=S)Nc1ccccc1[N+](=O)[O-] (centres unmarked)	-3.75

SMILES	hERG current change (%, negative = inhibition) at 10uM [%]
CC(C)c1nc(SCC(=O)c2ccccc2)c2c(=O)n(C)c(=O)n(C)c2n1	6.89
COc1ccc2c(COC(=O)CNC(=O)C34CC5CC(CC(C5)C3)C4)cc(=O)oc2c1	-31.4
CCNC(=O)c1ccc(=O)n(Cc2ccc(Cl)cc2Cl)c1	-18.6
CC1CCCCC1NC(=O)c1ccc2c(c1)OCCO2 (centres unmarked)	3.51
O=C(Nc1ccc(S(=O)(=O)N2CCCC2)cc1Cl)C1=COCCO1	-17.7
CCNC(=O)c1cc(Br)ccc1Cl	12.1
Cc1ccc(NS(=O)(=O)c2ccc(NC(=O)c3cccc(NC(=O)C(C)C)c3)cc2)cc1	3.7
CNC(=S)N/N=C(\C)c1ccc(C(C)(C)C)cc1	-16
Cn1cc(Br)c(-c2cccc(NC(=O)CCCC(=O)O)c2)n1	6.24
CCn1c(COc2cc(C)cc(C)c2)nnc1SCC(=O)N1CCN(c2ccccc2)CC1	12.7
CCN(CC)CCNC(C(=O)Nc1cccc(C(C)=O)c1)c1ccccc1.O=C(O)C(=O)O (centres unmarked)	-79.1
O=C(CN(C(=O)CCC(=O)Nc1nccs1)c1ccc2c(c1)OCCO2)NCc1ccco1	17.8
O=C1NC(=O)N(c2ccccc2)C(=O)/C1=C\c1ccccc1[N+](=O)[O-]	21.8
CCCCC(=O)N/N=C/c1ccc(Sc2cccc3cccnc23)o1	5.02
CN1C(=O)NC(c2ccc(O)cc2)C(C(=O)c2cccs2)C1(O)C(F)(F)F (centres unmarked)	-17.5
CC(=O)Nc1ccc(NC(=O)c2nc(-c3ccccc3)oc2C)cc1	27
Cl.O=C(Nc1cccc(C(F)(F)F)c1)c1cccnc1N1CCN(c2ccccc2)CC1	7.25
COc1ccc(NC(=S)N(CCc2c(C)[nH]c3ccc(C)cc23)Cc2cccnc2)cc1	-25.6
COc1ccc(S(=O)(=O)NCCC(C)C)cc1C	-18.2
N=C1C(c2ccccc2)=C(O)CN1c1cccc(S(=O)(=O)N2CCOCC2)c1	7.63
CC1=NNC(=O)C1CC(=O)N/N=C/c1ccncc1 (centres unmarked)	26.5
COc1ccc(C2CC(c3ccccc3)Nc3nc(NC(=O)c4ccco4)nn32)cc1 (centres unmarked)	-64.4

SMILES	hERG current change (%, negative = inhibition) at 10uM [%]
COCCN(C(=O)COC(=O)CCOc1cccc(C)c1)c1c(N)n(Cc2ccccc2)c(=O)[nH]c1=O	21
CCOc1ccc(/C=C\c2nc(O)c([N+](=O)[O-])c(=O)[nH]2)cc1OCC	10.9
C=CCn1c(-c2ccc(OC)c(OC)c2)cs/c1=N\c1ccccn1	13.2
NC1=NC(c2ccc(Cl)cc2)C(C(=O)c2ccccc2)N1 (centres unmarked)	-1.57
O=C(OCC(=O)c1cccs1)c1cccc(C(=O)OCC(=O)c2cccs2)n1	-4.01
CN(CCCC1CCCC1)C(=O)c1cc(COc2ccc(F)cc2F)on1	14.4
CCn1cc(C(=O)c2ccccc2)c2ccccc21	-16.2
COc1ccccc1C1NC(=O)NC(C)=C1C(=O)OCc1ccccc1 (centres unmarked)	2.94
Cc1ccc(-c2csc3nc(SCC(=O)N(C)C)n(Cc4ccccc4)c(=O)c23)cc1	-26
O=[N+]([O-])c1ccc(Cl)c(-c2ccc(/C=N/n3cnnc3)o2)c1	1.67
O=C(O)CCC(=O)Nc1ccc(C(=O)N2CCCCC2)cc1	20.6
Cc1ccc2c(c1)CCCN2CC(=O)Nc1cccc(S(=O)(=O)N2CCCC2)c1	-10.4
O=C(Nc1ccc(N2CCCCCC2)cc1)c1ccccc1Cl	-16.2
COC(=O)CN(C#N)c1nc(NC(C)C)nc(NC(C)C)n1	1.13
CC(C)(C)Nc1nc(N)nc(Cl)n1	5.87
CC(C)=CCN1CCN(Cc2cnc(-c3ccccc3)s2)CC1CCO (centres unmarked)	-49.2
COc1ccc(Br)cc1/C=C/c1ccc2cccc(O)c2n1	17.3
O=C(COC(=O)c1ccc(Cl)cc1Cl)Nc1cccc(S(=O)(=O)NC2=NCCC2)c1	-23.3
CCC(Sc1nc(=O)cc(N)n1-c1ccccc1)C(=O)Nc1cc(C)on1 (centres unmarked)	7.88
Cc1ccc(N(CC(=O)NC2CCCC2)C(=O)CCC(=O)Nc2ccccn2)cc1C	14.9
CCCCNC(=O)c1ccccc1SCC(=O)NC1CCCCCCC1	-16.8
CCc1nc(CN(C)C(=O)C2CCC(=O)N(Cc3cccc(F)c3)C2)no1 (centres unmarked)	3.44

SMILES	hERG current change (%, negative = inhibition) at 10uM [%]
Cc1cc(Br)ccc1S(=O)(=O)n1ccnc1C	-1.89
COc1cccc(C(=O)N/N=C/c2cn[nH]c2-c2ccc(OC)cc2OC)c1	-5.87
CN(C)C(=O)c1ccc(Nc2ncnc3sc4c(c23)CCCCC4)cc1	-22.3
Cn1cccc1CC(=O)NNC(=S)NC(=O)c1ccc(F)cc1	-10.6
CCC(C)NC(=O)C1CCN(S(=O)(=O)c2ccc3c(c2)CC(C)N3C(C)=O)CC1 (centres unmarked)	1.35
CC1=CCC2(CO)COC(c3ccccc3O)C1C2 (centres unmarked)	-6.82
COc1ccc(CN2CCC(n3nccc3NC(=O)C3CC3)CC2)c(OC)c1OC	-51.4
CCCc1nnc(NC(=O)C2CC(=O)N(C3CCCC3)C2)s1 (centres unmarked)	10.6
Cl.c1ccc(CN(CC2=NCCN2)c2ccccc2)cc1	-29.7
CN(C)c1ccc(/C=C/C#N)cc1	-4.61
O=C(CCN1C(=O)C2CCCCC2C1=O)Nc1nc2c(F)cc(F)cc2s1 (centres unmarked)	11.7
CN1C(=O)NC(c2cccc([N+](=O)[O-])c2)C2=C1CC(C)(C)CC2=O (centres unmarked)	9.63
C/C(=N/NC(=O)c1nnn(-c2nonc2N)c1COc1ccccc1)c1ccccc1	10.2
Cc1cc(C)n(-c2cccc3cccnc23)n1	14.5
CC(=O)c1c(C)oc2ccc(N(C(C)=O)S(=O)(=O)c3ccc(Cl)c([N+](=O)[O-])c3)cc12	6.82
COc1ccccc1C1CC(c2ccc(Cl)cc2)Nc2ncnn21 (centres unmarked)	-44.8
Cc1c(N(CC(=O)O)S(=O)(=O)c2ccccc2)c(=O)n(-c2ccccc2)n1C	24.5
Cc1noc(C)c1CCC(=O)NC1CCCN(Cc2ccc(CC(C)C)cc2)C1 (centres unmarked)	-66.8
Cc1ccc2c(c1)c1c3n2CCN(CC(N)=O)C3CCC1 (centres unmarked)	25.6
COc1ccc2sc(-c3ccccc3OC)c(-c3ccc4c(c3)OCCO4)c2c1	17.2
